Among all 420,000 compounds or so, about 64,000 (15%) were called active. The shares of active, inactive and inconclusive entries below differ from those in the screen. Calls follow the shape of the dose curve; as a rule, active = well fitted inhibition curve with a large enough effect; inconclusive = small, poorly fitted or top-dose-only effect; inactive = flat fitted curve, though single readings scatter. No potency is given beside an inconclusive call; the fits are too rough.
Assay: qHTS for Inhibitors of human tyrosyl-DNA phosphodiesterase 1 (TDP1): qHTS in cells in absence of CPT; also: nearly all actives have a fitted effect of over 55% in size
Settings: DT40 Tdp1-/- hTDP1 cells, no CPT, ATP luminescence, 48 h; activity change, negative = growth inhibition: at 46.2 µM (top of the series) unless noted
Summary of the method: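 Readout: luminescence from CellTiter-Glo after 30 min in the dark at RT. Cells: DT40 Tdp1-/- with stable hTDP1, 400/well. Exposure: compounds alone, ≥48 hr, 37 °C.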
% is scaled to controls: 0 for no effect and ±100 for the full control effect; potency is read from the fitted curve at half-maximal effect; tags tell the direction and shape of the fitted curve.

| SMILES | activity change, negative = growth inhibition | Potency |
| --- | --- | --- |
| COc1cccc(Nc2ncc3nc(-c4ccc(Cl)cc4)c(=O)n(C4CC4)c3n2)c1 | inactive: -0.842% | – |
| CSc1ncc(CN2CCCC(C(=O)Nc3ccc(-c4ccco4)cc3)C2)cn1 (stereo not given) | – | inconclusive [inhibitor, single point] |
| CCCCOc1ccc(S(=O)(=O)Nc2ccc(-c3ccc(N4CCC(C)CC4)nn3)cc2)cc1 | – | active: 29.1 µM |
| CCN(CC)S(=O)(=O)c1cccc2c(N(C)C)cccc12 | – | inconclusive [inhibitor, partial curve] |
| CC(=O)N=c1sc(C(C)(C)C)c(C)n1C | – | inconclusive [inhibitor, partial curve] |
| O=C(OCc1cccc(Cl)c1)c1cc([N+](=O)[O-])ccc1N1CCOCC1 | – | inconclusive [inhibitor, single point] |
| Cc1ccc(/C=C/C(=O)OCC(=O)N(CC(C)C)c2c(N)n(Cc3ccccc3)c(=O)[nH]c2=O)o1 | – | inconclusive [inhibitor, single point] |
| COc1cccc(-c2nnc(SCC(=O)NC3CCCCC3)o2)c1 | – | inconclusive [inhibitor, single point] |
| Cc1ccc(-c2csc(NC(=O)c3c(C)noc3C)n2)cc1C | – | active: 13 µM |
| C#Cc1cccc(-n2nnc(C(=O)OC)c2-c2ccccc2)c1 | – | inconclusive [inhibitor, partial curve, poor fit] |
| Cc1ccc(NC(=O)c2csc(-c3ccccc3)c2C)cc1 | – | inconclusive [inhibitor, partial curve] |
| CCCCCCCn1c2c(c(=N)c3ccccc31)CCC2 | – | active: 0.58 µM |
| COC(=O)C1C(=O)OC(C)(C)C1C(C)C(=O)c1ccccc1 (stereo not given) | inactive: 1.36% | – |
| CCN(CCO)c1ccc(Nc2cc(-c3ccc(-c4ccccc4)cc3)ncn2)cc1 | – | active: 14.6 µM |
| COc1ccc(C(=O)OCCOc2cccc(Cl)c2)cc1S(=O)(=O)N1CCOCC1 | – | inconclusive [inhibitor, single point] |
| NC(=S)N/N=C\c1c2ccccc2cc2ccccc12 | – | inconclusive [inhibitor, single point] |
| CCCCCC(=O)Nc1cccc(C2=NOC3(C2)C[C@@H](C(N)=O)N(C(=O)c2cc([N+](=O)[O-])cc([N+](=O)[O-])c2)C3)c1 (stereo not given in full) | – | inconclusive [inhibitor, single point] |
| CC(=O)c1oc2ccccc2c1NC(=O)CN1CCCCC1 | – | inconclusive [inhibitor, partial curve] |
| COc1ccc(NC(=O)CC2C(=O)N(C)C(=S)N2CCc2ccc(F)cc2)cc1 (stereo not given) | – | inconclusive [inhibitor, single point] |
| CN(CC(=O)Nc1ccccc1C(F)(F)F)C(=O)c1cc2c(s1)CCCCC2 | – | inconclusive [inhibitor, single point] |
| c1ccc(-n2ncc3c2ncn2nc(CSc4nc5ccccc5s4)nc32)cc1 | – | inconclusive [inhibitor, single point] |
| Cc1cccc(NS(=O)(=O)c2c(C(=O)N3CCCC3)c(C)n(C)c2C)c1 | inactive: 8.86% | – |
| Nc1cc(C(=O)N/N=C/c2cccc([N+](=O)[O-])c2)n[nH]c1=O | inactive: -2.75% | – |
| COc1cc(C(=O)OCC(=O)c2c(N)n(C)c(=O)n(C)c2=O)ccc1OCCC(C)C | inactive: -2.48% | – |
| O=C1C(c2ccc(F)cc2)N(Cc2ccc3c(c2)OCO3)C(=O)CN1C1CCCCC1 (stereo not given) | inactive: -24.3% | – |

| SMILES | activity change, negative = growth inhibition | Potency |
| --- | --- | --- |
| CSc1nc(N)c(C(=O)Nc2ccc([N+](=O)[O-])cc2)s1 | – | inconclusive [inhibitor, single point] |
| CC(=O)c1ccc(NS(=O)(=O)c2ccc(-c3cc(C)no3)s2)cc1 | inactive: -26.9% | – |
| Cc1ccc(NC(=O)c2ccc(CN3C(=O)CCn4nc(C)cc43)cc2)c(Cl)c1 | – | inconclusive [inhibitor, single point] |
| O=C(O)COc1cccc(-c2ocnc2-c2nc(-c3ccccc3)c(-c3ccccc3)o2)c1 | inactive: 2.29% | – |
| CCCCN(C(=O)C1CCCC1)c1c(N)n(Cc2ccccc2)c(=O)[nH]c1=O | inactive: -5.64% | – |
| Cc1ccc(NC(=O)CN2CCc3ccccc3C2)cc1S(=O)(=O)N(C)C | – | active: 23.1 µM |
| O=C(CCCN1C(=O)/C(=C/c2ccccc2)SC1=S)Nc1cccc(O)c1 | – | active: 23.1 µM |
| COc1ccc(C(=O)/C=C\N2CCOCC2)cc1 | – | inconclusive [inhibitor, single point] |
| CCOc1ccc(CCNC(=O)C2CCN(C(=O)c3cc4sccc4n3CC)CC2)cc1OCC | – | active: 18.4 µM |
| Cc1ccc(Nc2nc(Oc3ccc(=O)[nH]n3)nc(N(C)C)n2)cc1 | – | inconclusive [inhibitor, single point] |
| CCCC(=O)Nc1ccccc1N1CCN(C(=O)C(C)C)CC1 | inactive: -26.3% | – |
| O=C(CN1C(=O)NC2(CCCCC2)C1=O)Oc1ccc2ccc(=O)oc2c1 | inactive: 14.4% | – |
| Cc1cc(C)c(NC(=O)Nc2ccccc2)c(C)n1 | inactive: 9.84% | – |
| COc1cc(CNC[C@H]2O[C@@H](n3ccc(N)nc3=O)[C@H](O)[C@@H]2O)ccc1OCc1ccc(C)cc1 | inactive: -10.7% | – |
| COCCNC(=S)NC12CC3CC(CC(C3)C1)C2 | inactive: -24.3% | – |
| O=C(Nc1ccccc1)c1ccc(-c2ccc([N+](=O)[O-])cc2)o1 | – | inconclusive [inhibitor, partial curve] |
| CC(C)Sc1nc2sc(-c3ccccc3)cc2c(=O)n1N | inactive: 5.56% | – |
| O=[N+]([O-])c1ccc(N2CCN(CCO)CC2)cc1Sc1nc2ccccc2[nH]1 | – | inconclusive [inhibitor, partial curve] |
| CCOC(=O)N1CCN(C(=O)COc2cccc3c2CCN(Cc2ccc(F)cc2)C3=O)CC1 | – | inconclusive [inhibitor, single point] |
| Fc1ccc(-c2n[nH]c(=S)c3ccccc23)cc1 | inconclusive: -34.6% [inhibitor] | – |
| CCCCOC(=O)/C=C\C(=O)NC(N)=O | – | inconclusive [inhibitor, single point] |
| O=C(Cn1ncc2c3ccccc3n(Cc3ccccc3F)c2c1=O)N1CCN(c2ccccn2)CC1 | – | inconclusive [inhibitor, single point] |
| CCOC(=O)N1CCC2(CC1)OC(=O)C(C)=C2C(=O)NCc1cccc(F)c1 | inconclusive: -35.7% [inhibitor] | – |
| COc1cccc(OCCSc2nc(N)cc(N)n2)c1 | – | active: 20.6 µM |
| C=CCC1(CC=C)CCCN1C(=O)c1cc(COc2ccccc2SC)on1 | – | active: 20.6 µM |

| SMILES | activity change, negative = growth inhibition | Potency |
| --- | --- | --- |
| N#Cc1nc(-c2ccc(F)cc2)oc1N1CCN(C(=O)c2ccco2)CC1 | inactive: -23.6% | – |
| CCCn1nc(NC(=O)c2cccs2)c2cc3ccc(C)cc3nc21 | – | inconclusive [inhibitor, single point] |
| Cc1ccc(S(=O)(=O)c2c(C)nn(C(C)(C)C)c2OC(=O)c2ccco2)cc1 | inconclusive: -32.3% [inhibitor] | – |
| O=C1CC(c2ccccc2)=NN1c1nc(-c2ccccc2)cs1 | inactive: -24.9% | – |
| Cc1nc(C)c(/C(O)=C/c2nc3ccccc3oc2=O)s1 | – | active: 10.3 µM |
| COc1ccc(C(=O)ON=C2CCN(c3ccc([N+](=O)[O-])cc3)CC2)cc1 | – | inconclusive [inhibitor, partial curve] |
| N#Cc1ccc(NN=Nc2ccccc2C#N)cc1 | – | inconclusive [inhibitor, single point] |
| COc1ccc(S(=O)(=O)Nc2cccc(-c3ccc4nncn4n3)c2)cc1 | – | active: 2.59 µM |
| CCCCCc1nc2c(c3c1CCCC3)CCCC2 | – | inconclusive [inhibitor, single point] |
| O=C(Nc1cccc(Cl)c1)NC1CC2CCC(C1)N2Cc1cccs1 (stereo not given) | – | active: 25.9 µM |
| CC1(C)CC2(OC2c2ccccc2[N+](=O)[O-])C(=O)c2ccccc21 (stereo not given) | – | active: 18.4 µM |
| COc1ccc2nc(/N=C/c3c(C)[nH]n(-c4ccc(C)cc4)c3=O)sc2c1 | – | inconclusive [inhibitor, partial curve, poor fit] |
| CN(CCCC(=O)N1CCN(c2ncccn2)CC1)S(=O)(=O)c1ccc(F)cc1 | – | inconclusive [inhibitor, partial curve] |
| CC(C)N(Cc1cnn(C)c1)Cc1nc(Cc2ccccc2Cl)no1 | – | inconclusive [inhibitor, single point] |
| OCCc1ccc(NCCc2cccs2)cc1 | inactive: -10.7% | – |
| CN1CCN(c2ccc(CNS(=O)(=O)c3ccc(Cl)cc3)cc2)CC1 | – | active: 11.6 µM |
| CCOC(=O)CNS(=O)(=O)c1cc(-c2nn(C)c(=O)c3ccccc23)ccc1C | – | inconclusive [inhibitor, single point] |
| Cc1cccc(NS(=O)(=O)c2ccc(C(=O)N3CC(C)OC(C)C3)cc2)c1C (stereo not given) | – | inconclusive [inhibitor, partial curve] |
| CCOC(=O)C(=O)Nc1nccs1 | inactive: 0.0951% | – |
| CCc1ccc2nc(Nc3ncc(C(C)=O)c(C)n3)nc(C)c2c1 | inconclusive: -34.1% [inhibitor] | – |
| COc1cc2c(cc1OC)CN(Cc1ccc(C)cc1)CC2 | inactive: -28.4% | – |
| Clc1ccc(CN2C3=NCCCN3c3ccccc32)cc1Cl | – | active: 14.6 µM |
| N#Cc1ccsc1NC(=O)CSc1ncnc2ccccc12 | – | inconclusive [inhibitor, partial curve] |
| CCOc1ccc(N=C2C(=O)Nc3ccc(C)c(Br)c32)cc1 | inconclusive: -32.1% [inhibitor] | – |
| CCCCn1c(N)c(N(CCC(C)C)C(=O)C2CC(=O)N(c3ccc4c(c3)OCCO4)C2)c(=O)[nH]c1=O (stereo not given) | inactive: -9.03% | – |

Reference: PubChem BioAssay AID686978 (National Center for Advancing Translational Sciences (NCATS), 2013)
